The values that follow come from paper PMC3701701.

The target in assay [1] is T1, Dsn1 (1-130) fused to Gal4-DBD (S. cerevisiae) (UniProt P40568).
T1 sequence: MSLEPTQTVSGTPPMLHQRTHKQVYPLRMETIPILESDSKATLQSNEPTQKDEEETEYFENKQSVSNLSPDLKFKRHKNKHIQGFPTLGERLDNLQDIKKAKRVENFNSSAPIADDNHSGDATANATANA
The assay is described as follows: two-hybrid; Dsn1 and its variants fused to Gal4-DBD (pGBKT7), Csm1 fused to Gal4-AD (pGADT7) in AH109; growth on SD-LEU-TRP-ADE-HIS plates at 30°C for 2-3 days.

For assay [2], the target named is T2, Dsn1 (1-220) fused to Gal4-DBD (S. cerevisiae) (UniProt P40568).
T2 sequence: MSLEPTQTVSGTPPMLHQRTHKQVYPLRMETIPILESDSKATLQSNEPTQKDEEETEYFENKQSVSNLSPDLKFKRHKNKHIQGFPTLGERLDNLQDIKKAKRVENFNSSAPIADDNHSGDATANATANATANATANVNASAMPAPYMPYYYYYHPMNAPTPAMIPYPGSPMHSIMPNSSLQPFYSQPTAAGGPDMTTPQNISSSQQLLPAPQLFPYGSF
The description is as above.

Assay [3] deals with T3, Dsn1 (1-352) fused to Gal4-DBD (S. cerevisiae) (UniProt P40568).
T3 sequence: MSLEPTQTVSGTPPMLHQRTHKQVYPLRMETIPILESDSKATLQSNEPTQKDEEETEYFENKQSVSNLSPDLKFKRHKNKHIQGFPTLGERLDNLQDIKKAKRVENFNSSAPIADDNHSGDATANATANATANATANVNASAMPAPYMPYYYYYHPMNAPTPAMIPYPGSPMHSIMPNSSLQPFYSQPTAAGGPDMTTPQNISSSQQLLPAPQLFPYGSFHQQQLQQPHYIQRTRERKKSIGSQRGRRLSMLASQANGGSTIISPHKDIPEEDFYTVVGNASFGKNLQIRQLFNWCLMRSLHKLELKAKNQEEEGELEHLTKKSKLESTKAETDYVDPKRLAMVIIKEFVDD
The assay is described as above.

The target of assay [4] is T4, Dsn1 (1-576) fused to Gal4-DBD (S. cerevisiae) (UniProt P40568).
T4 sequence: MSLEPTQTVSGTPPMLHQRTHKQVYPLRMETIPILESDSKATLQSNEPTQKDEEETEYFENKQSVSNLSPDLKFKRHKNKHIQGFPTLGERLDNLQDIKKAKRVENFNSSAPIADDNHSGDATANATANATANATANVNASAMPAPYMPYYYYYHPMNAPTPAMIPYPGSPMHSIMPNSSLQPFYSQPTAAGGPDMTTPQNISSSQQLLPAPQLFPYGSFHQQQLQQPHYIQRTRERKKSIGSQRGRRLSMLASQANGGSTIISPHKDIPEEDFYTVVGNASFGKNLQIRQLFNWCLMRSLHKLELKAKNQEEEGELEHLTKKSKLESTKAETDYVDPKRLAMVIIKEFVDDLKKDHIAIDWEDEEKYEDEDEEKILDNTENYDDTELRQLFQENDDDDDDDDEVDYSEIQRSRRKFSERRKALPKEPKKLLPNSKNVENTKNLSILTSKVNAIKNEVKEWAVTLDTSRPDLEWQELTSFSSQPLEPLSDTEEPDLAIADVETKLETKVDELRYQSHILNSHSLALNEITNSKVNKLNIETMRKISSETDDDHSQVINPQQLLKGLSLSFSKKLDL
Described as above.

Assay [5] concerns the target T5, Dsn1 (131-220) fused to Gal4-DBD (S. cerevisiae) (UniProt P40568).
T5 sequence: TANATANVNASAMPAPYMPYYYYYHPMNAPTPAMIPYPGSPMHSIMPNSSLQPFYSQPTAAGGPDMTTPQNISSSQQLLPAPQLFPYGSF
The description is as above.

Assay [6] deals with T6, Dsn1 (353-576) fused to Gal4-DBD (S. cerevisiae) (UniProt P40568).
T6 sequence: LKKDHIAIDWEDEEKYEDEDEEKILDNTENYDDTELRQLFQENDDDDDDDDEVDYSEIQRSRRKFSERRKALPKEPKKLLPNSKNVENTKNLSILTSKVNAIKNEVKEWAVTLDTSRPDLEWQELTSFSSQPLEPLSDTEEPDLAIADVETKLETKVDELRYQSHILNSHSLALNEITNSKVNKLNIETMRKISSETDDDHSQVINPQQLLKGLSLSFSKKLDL
The assay is described as above.

The target of assay [7] is T7, Csm1 (1-140)-MBP (S. cerevisiae) (UniProt P25651).
T7 sequence: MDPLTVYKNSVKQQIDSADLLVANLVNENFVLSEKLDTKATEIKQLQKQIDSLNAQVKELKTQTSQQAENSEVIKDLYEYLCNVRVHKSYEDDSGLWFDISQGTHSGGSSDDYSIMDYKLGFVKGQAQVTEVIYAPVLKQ
The assay is described as follows: pull-down; Csm1-MBP (or variants) or MBP on amylose resin incubated with yeast extract containing Dsn1-pk6 or Dsn1-Δ110-pk6, 4°C, 30 minutes; washed with lysis buffer A containing 1% NP40; Western with anti-PK; only the target purified.

Assay [8] concerns the target T8, Csm1 (1-87)-MBP (S. cerevisiae) (UniProt P25651).
T8 sequence: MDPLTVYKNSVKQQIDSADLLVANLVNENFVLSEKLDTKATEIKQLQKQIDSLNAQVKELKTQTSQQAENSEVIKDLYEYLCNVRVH
The description is as above.

The target of assay [9] is T9, Csm1 (141-190)-MBP (S. cerevisiae) (UniProt P25651).
T9 sequence: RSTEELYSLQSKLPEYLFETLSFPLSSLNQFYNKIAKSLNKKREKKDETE
Described as above.

Assay [10] concerns the target T10, Csm1 (88-190)-MBP (S. cerevisiae) (UniProt P25651).
T10 sequence: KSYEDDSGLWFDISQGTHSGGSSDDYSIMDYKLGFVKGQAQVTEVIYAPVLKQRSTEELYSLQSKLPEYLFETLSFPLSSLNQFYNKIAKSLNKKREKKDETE
Described as above.

Assay [11] deals with T11, Csm1-MBP, full length (1-190) (S. cerevisiae) (UniProt P25651).
T11 sequence: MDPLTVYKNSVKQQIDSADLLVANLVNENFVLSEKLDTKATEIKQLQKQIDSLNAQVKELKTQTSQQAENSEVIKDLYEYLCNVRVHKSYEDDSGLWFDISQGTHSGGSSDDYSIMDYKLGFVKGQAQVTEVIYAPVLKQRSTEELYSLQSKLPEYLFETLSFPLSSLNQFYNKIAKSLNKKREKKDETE
The description is as above.

Results are given in words; binding and its absence hold for the method and conditions named. For part of these data: Binding seen in cells or lysates may run through a third protein. Some binding calls cover weakened binding; strength is not graded here. Where a sequence is shown, tags or fusion partners need not be part of it.

B1: Csm1 fused to Gal4-AD (protein, UniProt P25651 1-190)
chain: MDPLTVYKNSVKQQIDSADLLVANLVNENFVLSEKLDTKATEIKQLQKQIDSLNAQVKELKTQTSQQAENSEVIKDLYEYLCNVRVHKSYEDDSGLWFDISQGTHSGGSSDDYSIMDYKLGFVKGQAQVTEVIYAPVLKQRSTEELYSLQSKLPEYLFETLSFPLSSLNQFYNKIAKSLNKKREKKDETE
In the case of B1, the binding result is reported as “no binding” in assay [1]; “binds” in assay [2]; “binds” in assay [3]; “binds” in [4]; “no binding” in [5]; “no binding” in assay [6].

B2: Dsn1-pk6, full length (protein, UniProt P40568 1-576)
chain: MSLEPTQTVSGTPPMLHQRTHKQVYPLRMETIPILESDSKATLQSNEPTQKDEEETEYFENKQSVSNLSPDLKFKRHKNKHIQGFPTLGERLDNLQDIKKAKRVENFNSSAPIADDNHSGDATANATANATANATANVNASAMPAPYMPYYYYYHPMNAPTPAMIPYPGSPMHSIMPNSSLQPFYSQPTAAGGPDMTTPQNISSSQQLLPAPQLFPYGSFHQQQLQQPHYIQRTRERKKSIGSQRGRRLSMLASQANGGSTIISPHKDIPEEDFYTVVGNASFGKNLQIRQLFNWCLMRSLHKLELKAKNQEEEGELEHLTKKSKLESTKAETDYVDPKRLAMVIIKEFVDDLKKDHIAIDWEDEEKYEDEDEEKILDNTENYDDTELRQLFQENDDDDDDDDEVDYSEIQRSRRKFSERRKALPKEPKKLLPNSKNVENTKNLSILTSKVNAIKNEVKEWAVTLDTSRPDLEWQELTSFSSQPLEPLSDTEEPDLAIADVETKLETKVDELRYQSHILNSHSLALNEITNSKVNKLNIETMRKISSETDDDHSQVINPQQLLKGLSLSFSKKLDL
Regarding B2, the binding entry in assay [7] is “binds”; in assay [8] it was “no binding”; in assay [9], “binds”; in assay [10], “binds”; in assay [11] it was “binds”.

B3: Dsn1-Δ110-pk6 (domain or fragment, UniProt P40568 111-576)
chain: APIADDNHSGDATANATANATANATANVNASAMPAPYMPYYYYYHPMNAPTPAMIPYPGSPMHSIMPNSSLQPFYSQPTAAGGPDMTTPQNISSSQQLLPAPQLFPYGSFHQQQLQQPHYIQRTRERKKSIGSQRGRRLSMLASQANGGSTIISPHKDIPEEDFYTVVGNASFGKNLQIRQLFNWCLMRSLHKLELKAKNQEEEGELEHLTKKSKLESTKAETDYVDPKRLAMVIIKEFVDDLKKDHIAIDWEDEEKYEDEDEEKILDNTENYDDTELRQLFQENDDDDDDDDEVDYSEIQRSRRKFSERRKALPKEPKKLLPNSKNVENTKNLSILTSKVNAIKNEVKEWAVTLDTSRPDLEWQELTSFSSQPLEPLSDTEEPDLAIADVETKLETKVDELRYQSHILNSHSLALNEITNSKVNKLNIETMRKISSETDDDHSQVINPQQLLKGLSLSFSKKLDL
As for B3, the binding entry in assay [11] is given as “no binding”.
